This is one part of the list.
Test system: T1, C. trachomatis L2/434/Bu expressing GFP (CTL2-GFP)
T1 construct: L2/434/Bu GFP intracellular growth in HeLa cells
Design: species or system HeLa; C. trachomatis total inclusion area by high-content imaging, normalised to DMSO
Conditions: total inclusion area; 28.5 h, 10 µM; inhibitor
Summary of the method: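 Host cell viability was gauged from Hoechst-stained nuclei counts, while chlamydial growth was taken from total inclusion area and inclusion number per well. Cells were fixed and imaged by high-content microscopy once bulk GFP and resorufin fluorescence had been measured.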

In order of falling “% of control remaining” value:
1. COc1ccc(-c2ccc(CCC(=O)O)n2NC(N)=S)cc1 [CBK266018]  154.805
2. COc1ccc2cc(C(=O)NC3CCCN(C)C3)n(C)c2c1 (stereo not shown) [CBK282541]  118.681
3. CCc1ccc(Oc2cc(N3CCC(C(=O)NC4CC4)CC3)ncn2)cc1 [CBK287854]  112.536
4. CCn1cc(S(=O)(=O)N2CCCC3(CCCCC3)C2)c(C)n1 [CBK282756]  109.904
5. NS(=O)(=O)c1ccc(N2C(=O)C(O)=C(C(=O)c3ccc(Cl)cc3)C2c2ccc([N+](=O)[O-])cc2)cc1 (stereo not shown) [CBK263758]  101.141
6. CC(C)(C)OC(=O)NCC1(CC(=O)O)CCCCC1 [CBK287030]  100.786
7. Cc1ccc(NC(=O)CN(c2ccccc2)S(=O)(=O)c2ccccc2[N+](=O)[O-])cc1C [CBK262345]  94.232
8. Cc1ccc2nc(O)cc(C(=O)OCC(=O)c3cccc([N+](=O)[O-])c3)c2c1 [CBK265115]  93.0804
9. CC(C)c1ccc(S(=O)(=O)NCC(C)(C)CO)cc1 [CBK043547]  91.1169
10. O=C(c1cc(F)c(F)cc1F)N1CCC2(CCCNC2)C1 (stereo not shown) [CBK137068T]  90.8625
11. O=C(NC1CCS(=O)(=O)C1)/C(=C\c1ccccc1)NC(=O)c1ccc([N+](=O)[O-])cc1 (stereo not shown) [CBK261034]  89.7758
12. O=C(Cn1c(=O)n(Cc2cccs2)c2ncccc21)NCC1CC1 [CBK283899]  84.1388
13. O=C(Nc1c(F)cccc1F)n1ccc2c(N3CCNCC3)cccc21 [CBK003745C]  80.6341
14. Cc1cc(C)c(C)c(S(=O)(=O)NCCN2CCCCC2CO)c1C (stereo not shown) [CBK307333]  76.4728
15. CC(C)(CNS(=O)(=O)c1ccc(Cl)cc1)OCc1ccccc1 [CBK262088]  75.3115
16. O=C(c1cccnc1)N1CCN(Cc2cccc(Oc3ccccc3)c2)CC1 [CBK263326G]  71.8948
17. CCCCC(=O)NC(c1ccc(Cl)cc1)c1cc([N+](=O)[O-])c2cccnc2c1O (stereo not shown) [CBK293938]  71.1227
18. O=C(c1ncccc1O)N1CC(O)CC1c1cc(F)ccc1F (stereo not shown) [CBK306452]  63.5924
19. c1coc(COc2cncc(N3CCNCC3)n2)c1 [CBK013393]  60.9503
20. O=C(NCc1sccc1Cl)Nc1cccc(Cl)c1 [CBK057110]  44.3074
21. CC(C)(C)OC(=O)N1CCC(COc2ccc(-c3ccncc3)cn2)CC1 [CBK161777]  31.3918
22. CCCC1C(C(N)=O)=C(C)NC(C)=C1C(N)=O [CBK019102]  25.8596

From publication PMC12040169 (PLOS Biology, 2025)
